Assay results taken from the antibiotic and cytotoxicity screens of Wong et al. (2023).
This is one part of the list.

What follows are molecules tested on HepG2 (assay: cytotoxicity call (relative viability < 0.9)). Conditions: 10 µM.

SMILES | cytotoxicity call
C[C@@H]1CCCCO[C@H](CN(C)S(=O)(=O)c2cn(C)cn2)[C@H](C)CN([C@@H](C)CO)C(=O)c2cc(NS(C)(=O)=O)ccc2O1 | inactive
C[C@@H]1CN([C@H](C)CO)C(=O)c2cccc(NS(=O)(=O)c3cn(C)cn3)c2O[C@H]1CN(C)Cc1ccccc1 | inactive
C[C@H]1CN([C@@H](C)CO)C(=O)c2cc(C#Cc3cccc(F)c3)cnc2O[C@H]1CN(C)Cc1ccccn1 | inactive
CC(C)NC(=O)N(C)C[C@@H]1Oc2ccc(NS(=O)(=O)c3cn(C)cn3)cc2CC(=O)N([C@@H](C)CO)C[C@H]1C | inactive
COc1ccc(NC(=O)Nc2ccc3c(c2)CC(=O)N([C@H](C)CO)C[C@H](C)[C@H](CN(C)C(=O)Nc2ccc(C(F)(F)F)cc2)O3)cc1 | inactive
NC(=O)NCc1ccccn1 | inactive
CCS(=O)(=O)N1C[C@]2(CN(C2)C(=O)Nc2c(noc2C)C)c2c(n(c3cc(ccc23)OC)C)[C@H]1CO | inactive
C[C@H]1CN([C@@H](C)CO)C(=O)Cc2cc(NS(=O)(=O)c3ccc(Cl)cc3)ccc2O[C@@H]1CN(C)S(C)(=O)=O | inactive
Cc1ccc(S(=O)(=O)N2C[C@@H](O)COC[C@@H]3O[C@@H](CC(=O)NCCCN(C)C)CC[C@H]32)cc1 | inactive
COc1ccc(CNc2nc(N3CCCC3CO)ncc2C(=O)NCc2ncccn2)cc1Cl (configuration not stated) | inactive
COCC#Cc1ccc2c(c1)O[C@@H](CN(C)S(=O)(=O)c1ccc(C)cc1)[C@@H](C)CN([C@H](C)CO)S2(=O)=O | inactive
N#Cc1cccc2ccsc12 | inactive
